From PubChem BioAssay AID651820 (National Center for Advancing Translational Sciences (NCATS), 2012)
Hit rate of the full screen: of about 340,000 compounds, about 12,000 (3.5%) were called active. Inconclusive means that the source gave no clear call. Such entries were picked first, then a sample of the others. The call rests on the fitted dose curve; in most records, active means well fitted inhibition curve with a large enough effect; inconclusive means small, poorly fitted or top-dose-only effect, or another doubt; inactive means no such curve, though single readings can be large or run the other way. No potency is given beside an inconclusive call; the fits are too rough.

Assay: qHTS Assay for Inhibitors of Hepatitis C Virus (HCV)
Conditions: Huh7.5.1 HCVcc-Cre (HCVcc is cell-culture hepatitis C virus) infection, luciferase reporter, 44 h; series mostly up to 41.8 µM
How it was run: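 Antiviral activity was scored by luciferase reporter output from cells infected with HCVcc-Cre (~0.5 moi) in presence of compound, 44 h infection period, cells seeded 1,000/well 4 h prior.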
Potency means the concentration at half of the fitted maximal effect; tags describe the fitted curve by direction and shape.

**Q.** Which Potency does the source give for `CCOC(=O)Cc1csc(NC(=O)Nc2cccc(OC)c2)n1` here?
**A.** inactive

**Q.** Which Potency does the source give for `CCN(CC)c1nc(NNC(=O)c2ccccc2)nc(N(CC)CC)n1` here?
**A.** inactive

**Q.** Which Potency does the source give for `CC(CS(=O)(=O)c1ccc2c(c1)NC(=O)CS2)C(=O)N1CCN(c2cccc(Cl)c2)CC1` (stereo not given) here?
**A.** inconclusive [inhibitor, single point]

**Q.** With `Oc1ccc(/C=N/NC(=S)N/N=C/c2ccc(O)cc2)cc1` as the molecule, how does the Potency read?
**A.** inconclusive [inhibitor, partial curve]

**Q.** Which Potency does the source give for `CCN(c1cccc(C)c1)c1ncnc2nc[nH]c12` here?
**A.** inconclusive [inhibitor, partial curve]

**Q.** Which Potency does the source give for `Cc1nn(-c2ccccc2)c(Cl)c1C(=O)OCC(=O)NCCc1ccccc1` here?
**A.** inconclusive [inhibitor, partial curve]

**Q.** With `O=C(NCCc1ccc(Cl)cc1)c1ccc(CS(=O)Cc2ccccc2Cl)o1` (stereo not given) as the molecule, how does the Potency read?
**A.** inconclusive [inhibitor, single point]

**Q.** Which Potency does the source give for `CCOC(=O)C1CCN(S(=O)(=O)c2cccc(-c3cn4cc(Cl)ccc4n3)c2)CC1` here?
**A.** inactive

**Q.** With `Nc1ncc(Br)cc1S(=O)(=O)NCCC(=O)NC1CCCCC1` as the molecule, how does the Potency read?
**A.** inactive

**Q.** Which Potency does the source give for `O=C(c1ccco1)N1CCN(C(=O)c2ccco2)C1=S` here?
**A.** inconclusive [inhibitor, partial curve]

**Q.** For `O=C(NC(Cc1ccccc1)C(=O)N1CCN(S(=O)(=O)c2ccccc2)CC1)c1ccccc1` (stereo not given), which Potency is on record?
**A.** inconclusive [inhibitor, single point]

**Q.** Which Potency does the source give for `O=C(Nc1ccc(Br)cc1F)C1CCCN(S(=O)(=O)c2cnc[nH]2)C1` (stereo not given) here?
**A.** inconclusive [inhibitor, single point]

**Q.** Which Potency does the source give for `Cc1ccc(S(=O)(=O)c2nc(-c3ccccc3)oc2SCC(=O)NCC2CCCO2)cc1` (stereo not given) here?
**A.** active: 10 µM

**Q.** With `CCNc1ccc(C(=O)OCC)cc1NC(=O)c1cccc(S(=O)(=O)N(C)c2ccccc2)c1` as the molecule, how does the Potency read?
**A.** active: 8.91 µM

**Q.** With `Cc1cc[n+](C(C)C(=O)c2ccc(-c3ccccc3)cc2)cc1` (stereo not given) as the molecule, how does the Potency read?
**A.** inconclusive [inhibitor, full curve]

**Q.** With `CCn1cc(C(=O)NCc2ccc3c(c2)OCO3)c2cc(OC)c(OC)cc2c1=O` as the molecule, how does the Potency read?
**A.** inconclusive [inhibitor, full curve, poor fit]

**Q.** Which Potency does the source give for `COc1cc2c(cc1OC)C(C)N(C(=O)C1COc3ccccc3O1)CC2` (stereo not given) here?
**A.** inconclusive [inhibitor, partial curve]

**Q.** With `c1ccc(-c2csc3nnc(SCc4ccc5c(c4)OCO5)n23)cc1` as the molecule, how does the Potency read?
**A.** inconclusive [inhibitor, single point]

**Q.** With `COc1ccc(OC)c(/C=C/C(=O)N(C)CC(=O)Nc2ccc(C)cc2)c1` as the molecule, how does the Potency read?
**A.** inconclusive [inhibitor, partial curve]

**Q.** For `CCOc1ccc(N(CC(=O)Nc2nccs2)S(=O)(=O)c2c(C)noc2C)cc1`, which Potency is on record?
**A.** inconclusive [inhibitor, single point]

**Q.** For `COc1ccc(-c2cnnn2-c2ccc(NC(=O)/C=C/c3ccc(OC)c(OC)c3)cc2)cc1`, which Potency is on record?
**A.** inconclusive [inhibitor, full curve]

**Q.** Which Potency does the source give for `Cc1cc(C)c(C#N)c(SC2CCCCC2=O)n1` (stereo not given) here?
**A.** inconclusive [inhibitor, single point]

**Q.** With `Cc1nn(C)c(C(=O)NC2C3CC4CC(C3)CC2C4)c1Cl` (stereo not given) as the molecule, how does the Potency read?
**A.** inconclusive [inhibitor, partial curve, poor fit]

**Q.** With `O=C(CNC(=S)N(Cc1ccccc1)Cc1cccs1)NCc1ccc(F)cc1` as the molecule, how does the Potency read?
**A.** inconclusive [inhibitor, single point]

**Q.** For `COc1ccc(C(=O)c2c(-c3ccc(OC)cc3)oc3ccc(-c4cc(OC)c(OC)c(OC)c4)cc23)cc1`, which Potency is on record?
**A.** inconclusive [inhibitor, full curve]

**Q.** For `Cn1c(N)c(C(=O)Nc2ccc3ccccc3c2)sc1=S`, which Potency is on record?
**A.** inconclusive [inhibitor, full curve, poor fit]

**Q.** Which Potency does the source give for `COc1cc(CNC(C)c2ccccc2)cc(Br)c1OCc1ccc(F)cc1` (stereo not given) here?
**A.** active: 22.4 µM

**Q.** Which Potency does the source give for `COc1ccc(CN(C(=O)c2nsc(Cl)c2Cl)C(C(=O)NC2CCCCC2)c2ccc(OC)cc2)cc1` (stereo not given) here?
**A.** inconclusive [inhibitor, partial curve, poor fit]

**Q.** With `COc1cc(OC)cc(-c2nc(-c3ccccc3)no2)c1` as the molecule, how does the Potency read?
**A.** inactive

**Q.** Which Potency does the source give for `COc1cc(CN2CCN(c3ccccc3F)CC2)cc(OC)c1O` here?
**A.** inactive

**Q.** For `O=C(N/N=C/c1cc2c3c(c1O)CCCN3CCC2)c1ccccc1O`, which Potency is on record?
**A.** active: 3.16 µM

**Q.** Which Potency does the source give for `CCCC(C)NC(=O)COc1ccc(Sc2ccc(OCC(=O)NC(C)CCC)cc2)cc1` (stereo not given) here?
**A.** inconclusive [inhibitor, full curve]

**Q.** For `C=CCOc1ccccc1CN1CCC(C(=O)Nc2cccc(-c3ccn[nH]3)c2)CC1`, which Potency is on record?
**A.** inconclusive [inhibitor, partial curve]

**Q.** For `CC(CCc1ccccc1)NC(=O)COC(=O)c1ccc(S(C)(=O)=O)c([N+](=O)[O-])c1` (stereo not given), which Potency is on record?
**A.** inconclusive [inhibitor, single point]

**Q.** Which Potency does the source give for `CCCOC1CCCN(C(=O)c2cc(COc3c(F)cccc3F)on2)C1` (stereo not given) here?
**A.** inactive

**Q.** With `COc1cc(SC)ccc1C(=O)Nc1ccc2c(c1)CCC2` as the molecule, how does the Potency read?
**A.** active: 10 µM

**Q.** With `O=C(c1ccco1)N1CCN(c2ncnc3c2nnn3Cc2ccccc2Cl)CC1` as the molecule, how does the Potency read?
**A.** inconclusive [inhibitor, single point]

**Q.** For `CC(C)c1ccc(N(CC(=O)NCc2ccc(F)cc2)C(=O)c2csnn2)cc1`, which Potency is on record?
**A.** inconclusive [inhibitor, single point]

**Q.** With `CCOCCCNC(=S)NCCNc1nc2ccc(C)cc2cc1C#N` as the molecule, how does the Potency read?
**A.** inconclusive [inhibitor, partial curve]

**Q.** With `NS(=O)(=O)c1ccc(NC(=S)N2CCC(Cc3ccccc3)CC2)cc1` as the molecule, how does the Potency read?
**A.** inconclusive [inhibitor, single point]

**Q.** For `Cc1noc(/C=C/c2nn(C)cc2Cl)c1[N+](=O)[O-]`, which Potency is on record?
**A.** inconclusive [inhibitor, single point]

**Q.** With `CN(C)c1nc(NCc2ccccc2)nc(N/N=C/c2ccc3c(c2)OCO3)n1` as the molecule, how does the Potency read?
**A.** inconclusive [inhibitor, single point]

**Q.** Which Potency does the source give for `O=S(=O)(Nc1ccc(N2CCCCC2)cc1)c1ccc(F)c(F)c1` here?
**A.** inactive

**Q.** For `COc1cc(NC(=O)COc2ccc(F)cc2)nc(OC)n1`, which Potency is on record?
**A.** inactive

**Q.** Which Potency does the source give for `CCN(CC)C(=O)c1csc(Nc2ccc(C)cc2)n1` here?
**A.** inactive

**Q.** For `COc1cc(CC(=O)N2CCN(C(=O)C3CCCO3)CC2)cc(OC)c1OC` (stereo not given), which Potency is on record?
**A.** inactive

**Q.** With `O=C1C(Cl)=C(Oc2ccccc2)C(=O)c2ccccc21` as the molecule, how does the Potency read?
**A.** inconclusive [inhibitor, single point]

**Q.** Which Potency does the source give for `COc1ccccc1CNC(=O)Cn1cc2c(n1)CCCC2` here?
**A.** inconclusive [inhibitor, single point]

**Q.** Which Potency does the source give for `COn1c(-c2ccc(C)cc2)nc2ncccc21` here?
**A.** inactive

**Q.** Which Potency does the source give for `CC1CN(C(=O)CNC(=O)COc2ccccc2)CC(C)O1` (stereo not given) here?
**A.** inactive

**Q.** For `O/N=C/c1cc(Br)cc(Br)c1OCc1ccccc1`, which Potency is on record?
**A.** inactive

**Q.** With `Cc1ccc(-n2nc(C)c(NC(=O)COC(=O)c3ccccc3NCCO)c2C)cc1` as the molecule, how does the Potency read?
**A.** inconclusive [inhibitor, partial curve]

**Q.** For `O=C(NC1CC1)c1cc2c(s1)-c1ccccc1OC2`, which Potency is on record?
**A.** active: 11.2 µM

**Q.** Which Potency does the source give for `COc1cc2ncnc(NCc3ccc(Cl)cc3)c2cc1OC` here?
**A.** inactive

**Q.** With `CCN(CC)S(=O)(=O)c1cccc(C(=O)N[C@H](C(=O)Nc2nc3ccc(F)cc3s2)C(C)C)c1` as the molecule, how does the Potency read?
**A.** inconclusive [inhibitor, partial curve]

**Q.** With `Cc1cccc(NC(=O)CCC2CCN(C(=O)C3CC=CCC3)CC2)c1` (stereo not given) as the molecule, how does the Potency read?
**A.** inconclusive [inhibitor, partial curve]

**Q.** For `Cc1occc1C(=O)N1CCCC(N2CCN(c3cccc(C(F)(F)F)c3)CC2)C1` (stereo not given), which Potency is on record?
**A.** inconclusive [inhibitor, single point]

**Q.** With `Cc1nnc(SCC(=O)NC2CCCCCC2)n1C(C)C` as the molecule, how does the Potency read?
**A.** inactive

**Q.** Which Potency does the source give for `CC(C)(C)[C@@H]1C=C(C(=O)N2CCN(Cc3ccccc3)CC2)O[C@H](OCCCCO)C1` here?
**A.** inactive

**Q.** For `Cc1c2ccccc2nc2c(F)c(NCCO)c(F)c(F)c12`, which Potency is on record?
**A.** inconclusive [inhibitor, single point]

**Q.** For `CC1CCCC(C)N1CCNC(=O)CCc1nnc2n(Cc3ccccc3)c(=O)c3ccccc3n12` (stereo not given), which Potency is on record?
**A.** inconclusive [inhibitor, single point]

**Q.** With `Cc1cc(NC(=O)COC(=O)c2ccccc2S(=O)(=O)N(C)c2ccccc2)no1` as the molecule, how does the Potency read?
**A.** inactive

**Q.** Which Potency does the source give for `Cc1cc(C)c(C)c(S(=O)(=O)N2CCN(C(=O)C3CSC4(C)CCC(=O)N34)CC2)c1C` (stereo not given) here?
**A.** inconclusive [inhibitor, partial curve]

**Q.** Which Potency does the source give for `COc1ccccc1N1C(=O)N(C(C)=O)C2C1Nc1ccccc1N2C` (stereo not given) here?
**A.** inconclusive [inhibitor, single point]

**Q.** Which Potency does the source give for `c1ccc(CN2CCN(C3=Nc4cccc5cccc3c45)CC2)cc1` here?
**A.** inconclusive [inhibitor, full curve, poor fit]

**Q.** For `COc1ccc(CC(=O)OCC(=O)N2N=C(c3ccccc3)CC2c2ccc(OC)cc2)cc1` (stereo not given), which Potency is on record?
**A.** inactive

**Q.** Which Potency does the source give for `CCN(Cc1ccccc1)S(=O)(=O)c1ccc(C(=O)N(CCCN(C)C)c2nc3cc(C)cc(C)c3s2)cc1` here?
**A.** active: 10 µM

**Q.** For `COc1ccc(-c2cc3ccccc3cn2)cc1`, which Potency is on record?
**A.** inconclusive [inhibitor, full curve]

**Q.** For `O=[N+]([O-])c1ccc(-c2csc3[n+]2CCS3)cc1`, which Potency is on record?
**A.** inconclusive [inhibitor, single point]

**Q.** With `FC(F)(F)c1cc(-c2ccccc2)nc(NC2CCCC2)n1` as the molecule, how does the Potency read?
**A.** inconclusive [inhibitor, partial curve]
